Experimental data published in PubChem BioAssay AID485281 (National Center for Advancing Translational Sciences (NCATS), 2010).
Screen size: about 350,000 compounds; about 260 (0.074%) were called active. This list was built around the results that the source calls inconclusive (neither active nor inactive); the mix of calls is not that of the screen. Calls follow the shape of the dose curve; as a rule, active = well fitted inhibition curve with a large enough effect; inconclusive = small, poorly fitted or top-dose-only effect; inactive = no such curve, though single readings can be large or run the other way. Where the call is inconclusive, the potency comes from a doubtful curve fit.

Target: Ferritin light chain (Equus caballus) (UniProt P02791)
Assay: qHTS Assay for Identification of Novel General Anesthetics; also: nearly all actives have a fitted effect of over 20% in size
Details: apoferritin/1-aminoanthracene competitive binding, fluorescence; activity change, negative = displacement: at 77.5 µM (top of the series)
Procedure, shortened: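 Concentration-response curves derived by four-parameter Hill fitting of normalized fluorescence, where compounds displaced 1-AMA from 10 uM horse apoferritin following a brief 10 min room-temperature incubation; propofol titration acted as positive control.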
% is scaled to controls: 0 for no effect and ±100 for the full control effect; potency is read from the fitted curve at half-maximal effect; tags tell the direction and shape of the fitted curve.

Sequence of UniProt P02791 (P02791 whole entry, looked up): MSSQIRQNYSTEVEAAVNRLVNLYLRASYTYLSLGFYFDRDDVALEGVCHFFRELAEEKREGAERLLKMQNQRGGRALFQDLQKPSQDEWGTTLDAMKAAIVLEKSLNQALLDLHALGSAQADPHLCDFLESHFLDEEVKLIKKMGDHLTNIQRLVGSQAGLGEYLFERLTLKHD

SMILES | activity change, negative = displacement | Potency
O=C(CSc1nc2ccccc2o1)N/N=C/c1ccco1 | inconclusive: -26.5% [inhibitor] | –
CC1CC(C)CN(c2ncc3c(n2)CC(c2ccccc2)CC3=O)C1 (stereo unspecified) | – | inconclusive: 5.01 µM [inhibitor, full curve, poor fit]
COc1ccc(Nc2nc(N)c([N+](=O)[O-])c(NC3CCCCC3)n2)cc1 | – | inconclusive: 35.5 µM [inhibitor, partial curve]
Cc1cccc(NC(=O)c2ccc(Cl)c(NC(=O)c3ccncc3)c2)c1C | – | inconclusive: 20 µM [inhibitor, partial curve]
O=c1[nH]n(-c2ccc([N+](=O)[O-])cc2)c(=O)c2ccccc12 | – | inconclusive: 39.8 µM [inhibitor, partial curve]
CCc1c(C#N)c(SCCC(=O)Nc2ccc(F)cc2)nc2c1C(=O)CC(C)(C)C2 | – | inconclusive: 28.2 µM [inhibitor, partial curve]
NC(=O)N/N=C\c1ccc([N+](=O)[O-])o1 | – | inactive
Cc1ccc(N(C=NC#N)CC(=O)N2CCN(c3ccccc3)CC2)cc1 | – | inconclusive: 11.2 µM [inhibitor, partial curve]
CCC1CCCCN1S(=O)(=O)c1ccc(NC(=O)c2nc(SC)ncc2Cl)cc1 (stereo unspecified) | – | inconclusive: 10 µM [inhibitor, partial curve]
COC(=O)C1=C[C@@H](C(=O)OC)C2C3=C(C(=O)[C@@]2(C)NC(=O)c2ccccc2)[C@H](c2ccccc2)[C@@H]2C(=O)N(c4ccccc4)C(=O)[C@@H]2[C@@H]3C1 (stereo partly specified) | – | inactive
O=C(COC(=O)c1ccncc1)c1ccc(Cl)c(Cl)c1 | – | inconclusive: 28.2 µM [inhibitor, partial curve]
O=C(CC1CCCCC1)OCn1nnc2ccccc2c1=O | – | inconclusive: 28.2 µM [inhibitor, partial curve]
CCCc1cc(=O)[nH]c(SCC(=O)NCCCC(=O)OCC)n1 | – | inactive
Clc1ccc2c(c1)c1ccccc1n2CN1CCOCC1 | – | inconclusive: 4.47 µM [inhibitor, full curve, poor fit]
CCOC(=O)/C(C#N)=C/c1cc(C)n(-c2ccccc2)c1C | – | inconclusive: 3.98 µM [inhibitor, partial curve]
CC(=O)N1N=C(c2cccs2)CC1c1cccc([N+](=O)[O-])c1 (stereo unspecified) | – | inactive
CC(OC(=O)CNC(=O)C12CC3CC(CC(C3)C1)C2)C(=O)Nc1ccc(N2CCOCC2)cc1 (stereo unspecified) | – | inconclusive: 22.4 µM [inhibitor, partial curve]
Oc1ccc(-c2nccc(-c3cccs3)n2)cc1 | – | inconclusive: 25.1 µM [inhibitor, single point]
CC(C)CN(C)C(=O)CCc1nnc(Cc2cccc(C(F)(F)F)c2)o1 | – | inactive
Nc1ccccc1C#CC(=O)c1ccccc1 | – | inactive
O=C(CCC(=O)Nc1ccccc1Cl)NNC(=O)Nc1cccc([N+](=O)[O-])c1 | – | inconclusive: 11.2 µM [inhibitor, partial curve]
O=C(CC(Nc1ccc(F)cc1)C(=O)O)c1ccccc1 (stereo unspecified) | – | inactive
O=C(Nc1ccc(Cl)cc1)N1N=CCC1c1ccccc1 (stereo unspecified) | – | inactive
O=C(c1cccc(F)c1)N1C2C=CC(C2)C1(C(F)(F)F)C(F)(F)F (stereo unspecified) | – | inconclusive: 7.08 µM [inhibitor, partial curve]

SMILES | activity change, negative = displacement | Potency
CCOC(=O)C1C(=O)C=C(c2ccc(Br)cc2)CC1c1ccco1 (stereo unspecified) | – | inconclusive: 11.2 µM [inhibitor, partial curve]
O=C(CSc1cccc[n+]1[O-])c1cc2ccccc2o1 | – | inconclusive: 56.2 µM [inhibitor, single point]
CCOc1ccc(N2CC(C(=O)Nc3ccc(S(=O)(=O)N4CCCC4)cc3)CC2=O)cc1 (stereo unspecified) | – | inactive
FC(F)(F)c1cnc(Sc2ncn[nH]2)c(Cl)c1 | – | inconclusive: 35.5 µM [inhibitor, partial curve]
C/C(N)=C(/C#N)C(=O)CSc1nc(C2CCCCC2)n(-c2ccccc2)n1 | – | inconclusive: 31.6 µM [inhibitor, partial curve]
O=C(CSc1nnc(-c2cccnc2)n1Cc1ccco1)c1ccc(Cl)c(Cl)c1 | – | inconclusive: 35.5 µM [inhibitor, single point]
Cc1cc(NC(=O)COn2nnc3ccc(S(C)(=O)=O)cc32)ccc1Br | – | inconclusive: 56.2 µM [inhibitor, single point]
COC(=O)c1sccc1NC(=O)CC1C(=O)NCCN1C(=O)Nc1ccc(OCc2ccccc2)cc1 (stereo unspecified) | – | inconclusive: 35.5 µM [inhibitor, single point]
COc1ccc(-n2c(CCc3ccccc3)nnc2SCC(=O)c2ccc(Cl)cc2)cc1 | – | inactive
O=C(COC(=O)c1cccc(N2C(=O)C3CC=CCC3C2=O)c1)c1ccccc1 (stereo unspecified) | – | inconclusive: 31.6 µM [inhibitor, partial curve]
Cc1ccccc1CNC(=O)c1ccccc1N | – | inconclusive: 39.8 µM [inhibitor, single point]
O=[N+]([O-])c1ccc(N2CCCC2)cc1NC1CC1 | – | inconclusive: 22.4 µM [inhibitor, partial curve]
CCCCn1nc(NC(=O)CC)c2cc3cc(OC)ccc3nc21 | – | inactive
CCC1CCCCN1C(=O)c1cc(COc2ccc3ncccc3c2)on1 (stereo unspecified) | – | inconclusive: 10 µM [inhibitor, partial curve]
CN1c2ccccc2N(C)C1(C)c1ccccc1 | – | inactive
COc1ccccc1NC(=O)N(Cc1ccco1)Cc1cc2ccc(C)c(C)c2[nH]c1=O | – | inactive
COc1ccccc1NC(=O)c1ccc(NC(=O)COC(=O)C2CC2C)cc1 (stereo unspecified) | – | inactive
CC(C)CC(=O)NC(NC(=S)Nc1cccc2cccnc12)C(Cl)(Cl)Cl (stereo unspecified) | – | inconclusive: 14.1 µM [inhibitor, partial curve]
CCOc1ccccc1Nc1nc(-c2cccnc2)cs1 | – | inconclusive: 25.1 µM [inhibitor, single point]
CC(C)(C)C1CCC(OC(=O)CCC(=O)Nc2ccccc2)CC1 (stereo unspecified) | – | inconclusive: 35.5 µM [inhibitor, single point]
COc1ccc(-c2nnc3n2N=C(c2c(OC)cccc2OC)CS3)cc1OC | – | inactive
CC(=O)Nc1ccc2[nH]c(C)cc(=O)c2c1 | – | inactive
CC12CN(C(=O)c3ccc(Cl)cc3)C3(C#N)CC1CCC23C (stereo unspecified) | – | inconclusive: 31.6 µM [inhibitor, partial curve]
COc1ccc(Cc2nc3ccc(S(=O)(=O)N4CCOCC4)cc3[nH]2)cc1OC | – | inconclusive: 31.6 µM [inhibitor, partial curve]

SMILES | activity change, negative = displacement | Potency
Cc1ccc(-n2nc(C(=O)Nc3ccc(C)c(F)c3)c(=O)n(C)c2=O)cc1 | – | inconclusive: 35.5 µM [inhibitor, single point]
O=S(=O)(NCCc1ccccc1)c1ccccc1 | – | inconclusive: 31.6 µM [inhibitor, single point]
FC(F)(F)c1cc(-c2ccc(Cl)cc2)nc(NCc2cccnc2)n1 | – | inconclusive: 39.8 µM [inhibitor, single point]
Cc1ccc2c(Cl)cc(Cl)c(OCC(=O)NC(=O)NCc3ccco3)c2n1 | – | inconclusive: 3.55 µM [inhibitor, partial curve]
O=C(CN1C(=O)c2ccccc2S1(=O)=O)c1ccccc1F | – | inconclusive: 31.6 µM [inhibitor, partial curve]
COc1ccc(S(=O)(=O)N2CCCC(C(=O)Nc3cccnc3)C2)cc1Cl (stereo unspecified) | – | inactive
Cc1cc(NC(=O)COC(=O)c2ccc(S(=O)(=O)N3CCCc4ccccc43)cc2)no1 | – | inconclusive: 25.1 µM [inhibitor, partial curve]
c1cc2c(cc1C1CCCCC1)c1c3n2CCN=C3CCC1 | – | inconclusive: 15.8 µM [inhibitor, partial curve]
O=[N+]([O-])c1cccc(-c2nnc(-c3ccccc3)o2)c1 | – | inactive
Cc1cc(C)c(C(=O)C(C)OC(=O)c2ccc(Cl)nc2)cc1C (stereo unspecified) | – | inconclusive: 35.5 µM [inhibitor, partial curve]
C/C(=N/NC(=O)CSc1nc2ccccc2n1C)c1ccco1 | – | inconclusive: 44.7 µM [inhibitor, single point]
CC(C)CC(=O)NC(=S)Nc1ccccn1 | – | inconclusive: 31.6 µM [inhibitor, partial curve]
O=C(CSCc1nc2ccccc2[nH]1)Nc1ccc2ccccc2c1 | – | inconclusive: 39.8 µM [inhibitor, partial curve]
N#CC(c1ccccc1F)(c1ncc(C(F)(F)F)cc1Cl)N1CCOCC1 (stereo unspecified) | – | inconclusive: 20 µM [inhibitor, partial curve]
O=S1(=O)NC2CCCCCN2c2ccc(F)cc21 (stereo unspecified) | – | inactive
COc1ccc(Cl)cc1NC(=O)CSc1nnc(COc2ccccc2)n1C | – | inconclusive: 31.6 µM [inhibitor, single point]
O=C(Cn1cnc2ccc(Br)cc2c1=O)c1cccs1 | – | inconclusive: 44.7 µM [inhibitor, single point]
c1ccc2c(-c3nn4nnnc4c4ccccc34)cccc2c1 | – | inconclusive: 20 µM [inhibitor, partial curve]
Cc1nc2ncnn2c(C)c1CCC(=O)N1CCN(c2cccc(Cl)c2)CC1 | – | inactive
CC(=O)CC1OC(=O)C(Br)=C1NCc1ccccc1 (stereo unspecified) | – | inactive
Cc1cccnc1Nc1nc(-c2ccc(O)cc2)cs1 | – | inconclusive: 25.1 µM [inhibitor, partial curve]
O=C(C1COc2ccccc2O1)N1CCN(c2ccccc2)CC1 (stereo unspecified) | – | inactive
Nc1nc(NCc2ccco2)nc(N2CCCCCC2)c1[N+](=O)[O-] | – | inconclusive: 14.1 µM [inhibitor, partial curve]
